# In PMC4336329 (PLoS ONE, 2015):
# The whole screen tested about 310,000 compounds, of which about 2,200 (0.71%) showed an effect of 50% or more. Effects have a minus sign here. This is one part of the list.
# Molecular target: human ether-à-go-go-related gene (hERG) potassium channel (human, UniProt Q12809)
# Assay: primary screen, population patch clamp on CHO cells stably expressing hERG
# human ether-à-go-go-related gene (hERG) potassium channel, sequence (Q12809 whole entry, looked up): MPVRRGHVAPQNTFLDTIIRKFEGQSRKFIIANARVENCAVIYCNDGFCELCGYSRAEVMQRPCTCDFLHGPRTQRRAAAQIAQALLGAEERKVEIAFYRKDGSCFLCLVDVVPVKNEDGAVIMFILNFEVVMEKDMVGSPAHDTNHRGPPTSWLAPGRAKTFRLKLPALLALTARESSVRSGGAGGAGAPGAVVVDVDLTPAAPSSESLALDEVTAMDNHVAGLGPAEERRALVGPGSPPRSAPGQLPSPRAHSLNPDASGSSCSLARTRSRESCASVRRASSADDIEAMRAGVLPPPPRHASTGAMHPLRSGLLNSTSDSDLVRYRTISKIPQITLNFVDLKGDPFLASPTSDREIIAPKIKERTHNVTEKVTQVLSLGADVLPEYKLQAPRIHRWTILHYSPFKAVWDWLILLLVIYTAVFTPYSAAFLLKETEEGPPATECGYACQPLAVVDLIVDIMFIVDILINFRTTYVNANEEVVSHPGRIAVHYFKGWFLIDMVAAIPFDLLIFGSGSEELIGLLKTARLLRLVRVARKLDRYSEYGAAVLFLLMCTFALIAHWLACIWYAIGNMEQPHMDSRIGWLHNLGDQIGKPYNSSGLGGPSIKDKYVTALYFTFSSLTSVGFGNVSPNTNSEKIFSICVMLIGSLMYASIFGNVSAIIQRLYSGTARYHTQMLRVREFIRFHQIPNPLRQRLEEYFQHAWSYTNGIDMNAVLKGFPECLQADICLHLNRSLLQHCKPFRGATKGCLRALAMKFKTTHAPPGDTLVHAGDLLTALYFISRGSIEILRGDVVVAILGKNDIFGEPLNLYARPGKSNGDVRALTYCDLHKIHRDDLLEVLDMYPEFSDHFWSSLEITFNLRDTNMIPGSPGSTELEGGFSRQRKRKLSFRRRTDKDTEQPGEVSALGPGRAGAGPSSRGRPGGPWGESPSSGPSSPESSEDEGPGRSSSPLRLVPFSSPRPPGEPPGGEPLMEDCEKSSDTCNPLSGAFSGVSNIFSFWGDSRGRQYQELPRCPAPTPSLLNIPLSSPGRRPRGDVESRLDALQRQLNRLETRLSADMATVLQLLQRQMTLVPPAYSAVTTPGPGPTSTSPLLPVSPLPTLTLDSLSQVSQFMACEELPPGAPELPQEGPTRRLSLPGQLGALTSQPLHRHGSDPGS
row,Structure (SMILES),"hERG current change (%, negative = inhibition) at 1uM [%]"
1,CC(C)Oc1ccc(C2NC(=O)NC2=O)cc1 (centres unmarked),25.1
2,CC(Oc1ccc(Br)cc1)C(=O)Nc1ccncc1 (centres unmarked),0.656
3,Cc1ccc(-c2nnc(SCC(=O)N/N=C/c3c(C)nn(-c4ccccc4)c3C)n2-c2ccccc2)cc1,8.19
4,Cc1ccc(-c2cn3c(n2)CCCC3)cc1.Cl,0.153
5,Cc1cc(NC(=O)CSCC(=O)OCC(=O)c2cccc(Br)c2)no1,0.666
6,COc1cc(/C=C2\SC(=S)N(NS(=O)(=O)c3ccccc3)C2=O)ccc1O,5.22
7,O=C(CCc1c[nH]c2ccccc12)N=Nc1c(O)[nH]c2ccccc12,13.5
8,O=C(c1cc2cc(Br)ccc2[nH]1)N1CCc2ccccc21,13
9,O=C(NCc1ccco1)c1ccc(Cl)cc1[N+](=O)[O-],13.7
10,O=C(C[n+]1ccccc1)Nc1c(Cl)cc(Cl)cc1Cl.[Cl-],14
11,CC(=O)c1ccc2noc(-c3cccc(C)c3)c2c1,-3.65
12,O=C(CCNS(=O)(=O)c1cccc2nsnc12)NCCc1ccccc1,4.74
13,CC/C(=N\NC(=O)c1ccc(N2CCCC2=O)cc1)c1ccccc1,10.8
14,Cc1ccc(C(=O)NCCc2csc(-c3cccnc3)n2)cc1,15.6
15,CCOC(=O)CSc1nnc(-c2ccc(S(=O)(=O)N3CCOCC3)cc2)n1-c1ccccc1,14.6
16,COc1ccccc1C1CCN(Cc2ccc(Cl)cc2Cl)CC1,12
17,Cc1cccc2nc(CNC(=O)CC3C(=O)NCCN3Cc3cccc(F)c3)cn12 (centres unmarked),5.15
18,CN(CCO)c1nc(N)c(C#N)c(CC#N)c1C#N,11.3
19,O=C(Nc1cccc(Cl)c1)N1CCCC1,12.8
20,CCCCN(C(=O)CNC(=O)c1cccs1)C(C(=O)NC1CCCCC1)c1cccnc1 (centres unmarked),9.74
21,Cc1ccc(COCC(CC(C)C)N2CCN(C(=O)c3cccc(C(F)(F)F)c3)CCC2=O)cc1 (centres unmarked),6.44
22,S=C(NCc1ccc2[nH]c3c(c2c1)CCCC3)Nc1ccccc1Cl,14.3

row,Structure (SMILES),"hERG current change (%, negative = inhibition) at 1uM [%]"
1,CC(C)(C)C1=Nn2c(nnc2-c2ccccc2F)SC1,6.92
2,COc1cc(OC)cc(-c2cc3nc(C)cc(N4CCN(C(=O)c5ccco5)CC4)n3n2)c1,10
3,O=C(Nc1ccc([N+](=O)[O-])cc1)Nc1ccon1,7.99
4,COCCN1Cc2cccc(C(=O)Nc3cc(OC)ccc3OC)c2C1=O,0.697
5,CCOC(=O)C1C(=O)C=C(C)C(C(=O)OCC)C1c1ccc(OC)cc1 (centres unmarked),1.95
6,CNC(=O)CN(c1ccc(Oc2ccccc2)cc1)S(=O)(=O)c1ccc(C)cc1,12.6
7,CCOc1cccc2cc(C(=O)N3CCOCC3)c(=O)oc12,18.9
8,C/C(=N\NC(=O)c1c(C)nc2ccccn12)c1ccc(C(C)(C)C)cc1,11.3
9,N#CCc1ccc(NS(=O)(=O)c2ccc(N3CCCC3=O)cc2)cc1,-0.504
10,Cc1cc(C)c(N(C(=O)Cn2nnc3ccccc32)C(C(=O)NC(C)(C)C)c2ccsc2)c(C)c1 (centres unmarked),-11.3
11,COc1ccc(N2CCCn3c2nc2c3c(=O)n(CCc3ccccc3)c(=O)n2C)cc1,4.58
12,Cc1ccc(C2CC2c2n[nH]c(=S)n2-c2ccc(C)cc2)cc1 (centres unmarked),5.98
13,CC(C)CCNC(=O)c1c[nH]c2ccc(S(=O)(=O)N3CCC4(CC3)OCCO4)cc2c1=O,7.76
14,COc1ccc(-c2nc(NC(=O)CSc3nnc(C)s3)ns2)cc1,1.46
15,CCCN(CC1CC1)C(=S)NC(=O)C1CC1,20.1
16,COc1ccc(C2C(C(=O)NCCN(C)C)c3cc(OC)c(OC)cc3C(=O)N2C)cc1OC (centres unmarked),11.7
17,O=C1CN=C(c2ccc[nH]2)c2cc(Cl)ccc2N1,7.4
18,Cc1cccc(-c2nc(CN3CCCC(C(=O)NC4CCCCCC4)C3)c(C)o2)c1 (centres unmarked),-15.4
19,O=C(CSc1ccc(-c2cccs2)nn1)c1cccs1,-6.94
20,Cn1ncc(Cl)c1C(=O)N1CCC2(CC1)OCCO2,-1.69
21,CC(=O)NC[C@H]1CN(c2ccc(N3CCOCC3)c(F)c2)C(=O)O1,1.39
22,Cc1c(N2C(=O)c3cccc4cccc(c34)C2=O)cnn1C,4.45
